This passage reports binding signal (log2 normalized intensity) results from publication PMC10726135.

The other results are listed elsewhere or left out. At the low end of the ranking, values are background and their order means little. Measured with an extract: partners may take part in the binding.

This experiment concerns the target T1, HNF4alpha2 (COS-7 nuclear extract) (UniProt P41235).
T1 sequence: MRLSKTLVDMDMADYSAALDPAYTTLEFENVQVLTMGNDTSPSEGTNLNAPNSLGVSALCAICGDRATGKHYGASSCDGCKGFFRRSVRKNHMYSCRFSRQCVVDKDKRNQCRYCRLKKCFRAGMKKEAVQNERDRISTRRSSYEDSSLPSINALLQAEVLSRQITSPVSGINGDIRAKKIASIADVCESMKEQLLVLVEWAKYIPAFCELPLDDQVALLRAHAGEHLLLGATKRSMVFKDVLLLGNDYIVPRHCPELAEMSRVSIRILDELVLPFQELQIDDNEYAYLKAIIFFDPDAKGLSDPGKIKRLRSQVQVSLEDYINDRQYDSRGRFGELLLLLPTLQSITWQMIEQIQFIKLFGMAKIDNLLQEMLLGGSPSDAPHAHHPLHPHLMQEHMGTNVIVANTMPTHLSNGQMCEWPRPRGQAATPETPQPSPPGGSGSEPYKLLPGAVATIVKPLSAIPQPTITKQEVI
In words: protein-binding microarray. The conditions noted are these: COS-7 nuclear extract on double-stranded Agilent 4x180k PBM; binding buffer, salt, pH and temperature not given; high values mean tight binding; double strand, one strand shown; sequences stand for … in …GCCTAGGGAGATTAGAGTATCGGTCGA
GATAGGAGATAAGGGGGTCAGTTCAAAAGA: the binding signal (log2 normalized intensity) turned out to be 0.291.

CGCTTGTCTTACGGAAGAATGGAATTCCAG: the binding signal (log2 normalized intensity) is 1.28.

With AACACACAAGGCCCACTCCTCCCTCAGGGA, the binding signal (log2 normalized intensity) was -1.1.

In the case of CTATGGGAAAACAGGCTCAGCAAAGTCAGG, the binding signal (log2 normalized intensity) is -1.13.

For AATATCGCTTGTCTTACGGAAGAATGGAAT, the binding signal (log2 normalized intensity) amounted to 1.04.

Consider TTCAGGAATGCACCCTTTTGACCACACAGC, for which the binding signal (log2 normalized intensity) worked out at 1.43.

In the case of TGTTGGGATTAAGGAGAAGGCTCCCAAGGT, the binding signal (log2 normalized intensity) was -1.22.

In the case of CATCTGCCACTCATAGAACTGTCGCAGAAA, the binding signal (log2 normalized intensity) was -1.18.

Consider TTCTTTTTTTCTTTTTTTCCCCCTCACTGA, for which the binding signal (log2 normalized intensity) turned out to be 4.25.

Take TCTTGCCCTTTGGTCTGGAACACAGAGGGA: the binding signal (log2 normalized intensity) amounted to 1.91.

ATGGGGCCAGATTGAGAAACACATTCTTAG: the binding signal (log2 normalized intensity) is -0.841.

In the case of GCCAGCAAGGACTTTGAAGGCCCCAATTGC, the binding signal (log2 normalized intensity) is -0.606.

Consider AAGACCAAACTGCTGAAGATAAGACTTCCT, for which the binding signal (log2 normalized intensity) is -0.997.

Regarding GTTTGTCAAGCTCAATGCAACCAGTTGGTG, the binding signal (log2 normalized intensity) was -1.16.

In the case of ATCAAAGGTCACTTTACAGATAAAGAAACC, the binding signal (log2 normalized intensity) was 2.34.

In the case of ACAGAGTAAAGCCACTGCCTAGATAAAAGG, the binding signal (log2 normalized intensity) is -1.17.

As for CTTTGCCCAACCCTCTCCCACTCCCCTCCT, the binding signal (log2 normalized intensity) stood at 4.96.

On to AAGGGTTCAGGGCAGAAGAGGTTATCACAG, for which the binding signal (log2 normalized intensity) was -0.326.

As for ATGATATGGTCAGTGTTGATAAGAAAGCTG, the binding signal (log2 normalized intensity) amounted to 0.0354.

Take AAGGCTGCTGCCTGAAAGGCCAAGCCAGTT: the binding signal (log2 normalized intensity) is -1.04.

Consider GGAATCTGAACTTTTGGCTCCCTGGGGTTA, for which the binding signal (log2 normalized intensity) is 1.68.

CCTCCCGGAGGACCCGACCGGAGAGGGCGA: the binding signal (log2 normalized intensity) was -1.29.

ATAAGGAGGGTAACAATGCTGATGGGGACC: the binding signal (log2 normalized intensity) is -1.14.

For the sequence GGAAAAGTAACACAGTAAGAGACTTCACCA, the binding signal (log2 normalized intensity) was -1.19.

As for CCCTTCCTGCTTCCAGGCTTGTACCTTGAC, the binding signal (log2 normalized intensity) is 2.69.

As for CCCTAGTGACTCTAGGAACCTTTCTCCATA, the binding signal (log2 normalized intensity) was -0.94.

For ATAGGCGAGGACGCAGTCCCGCGTGGCCTT, the binding signal (log2 normalized intensity) was -1.09.

For the sequence TGTCAGCCCAAGATAACCTCCCCTCTGACC, the binding signal (log2 normalized intensity) is 3.22.

Consider ATGTTAATGATTACTAGAGATGTCCTGAAA, for which the binding signal (log2 normalized intensity) is -0.0943.

Turning to CAAGAAAGACCCAAGGCGTATGAAGCTTTG, the binding signal (log2 normalized intensity) was -1.15.

Take GGGTGGACTTTGGCTTTTCCAAAGGATCCC: the binding signal (log2 normalized intensity) is 4.12.

For AATAGATCTGGTCTTACTGATGGGCAAAGT, the binding signal (log2 normalized intensity) was 1.75.

With TTAAAAGCCCAACACGGGCGAAAAAGACGC, the binding signal (log2 normalized intensity) is -1.1.

For AACATTCTATTCTATCTGTATTCTGAAGCC, the binding signal (log2 normalized intensity) turned out to be 0.518.

For ATGCAAAGCCCTGGCTGACCTTTAGCCTGG, the binding signal (log2 normalized intensity) amounted to 6.54.

For the sequence GGGCCCCTTCCTGGGGGAGTTTCCTGCCTG, the binding signal (log2 normalized intensity) was -1.11.

AATGAGCCTCCTGAAGATCCCCTGTTGTGC: the binding signal (log2 normalized intensity) was 1.99.

Consider GGGACTTCGGTCTTTTTTCTGAAGACCTTC, for which the binding signal (log2 normalized intensity) was found to be 1.34.

Turning to ATCTAATGCCCCAAATGACGCTTTAAGTAG, the binding signal (log2 normalized intensity) was determined as 0.934.

Consider CGCATTTCCAAAAGAAGAATGTGGCCATTT, for which the binding signal (log2 normalized intensity) came out at 1.08.

Take AAGTTCTTTTGTGTGTTTACATAACCTGCC: the binding signal (log2 normalized intensity) was 1.69.

Take GAAGACTTGGGGGAGGAGGGCAACCTTTGA: the binding signal (log2 normalized intensity) was 4.3.

AATAACCACAAGGGGGGAGCACCTCCCAAC: the binding signal (log2 normalized intensity) is -1.09.

Consider TTTCAAAGGTCAACATACAGAGGCTCTGAG, for which the binding signal (log2 normalized intensity) came to 2.17.

As to CAAGAACAAAAACTGTTTCTATGTGACCTT, the binding signal (log2 normalized intensity) was 4.18.

With GGCAGGAGTCAACAGGCAGAAGAATGGATG, the binding signal (log2 normalized intensity) is -1.07.

Turning to GCTGCCGCAGATCCCCGCTCCCCTCCCCCA, the binding signal (log2 normalized intensity) came out at 6.45.

Regarding CTCCACTATTGTCCTATGACCCTGCCAAAT, the binding signal (log2 normalized intensity) was 2.34.

Turning to TCTCAGCCTGGCTAAAACCCTGGCCACTCC, the binding signal (log2 normalized intensity) is -1.16.

On to GAGGGGGTTAAAGGTTATTTGCTCACCAGT, for which the binding signal (log2 normalized intensity) stood at 3.66.

On to TGGCAGAATCAAGGCAAGCCTTATCACTGT, for which the binding signal (log2 normalized intensity) was -1.13.

As for GAAGCGAGGCCTCATTGGCCAGTATCCGCC, the binding signal (log2 normalized intensity) is -1.07.

Consider GCTGAGCAGCAATCAGCTCCTCAACCAAGG, for which the binding signal (log2 normalized intensity) was -1.45.

Consider TCAGCACACCCCACGGAGCACATTCCATGC, for which the binding signal (log2 normalized intensity) stood at 1.55.

On to CTTCTCTGTTAACCCTTTGCAGCCCCTGTC, for which the binding signal (log2 normalized intensity) stood at 3.49.

With GATGTAGCTGCAAAGATAAGGATGCCTTTT, the binding signal (log2 normalized intensity) worked out at 0.61.

Consider TATTCAGGAAGTCGCTTGCCAGTATGCCAC, for which the binding signal (log2 normalized intensity) is -1.03.

As for GAGAAACAGGGGCTTAAACCTTTAATGATG, the binding signal (log2 normalized intensity) is -0.75.

As to CAAACATACTTAGGATTTTTGTGCCTCTTT, the binding signal (log2 normalized intensity) was 1.05.

As for AATCAGTCTGATTGGTTGCAGAAGGCAGCC, the binding signal (log2 normalized intensity) was -0.054.

With GTCTTTAGAGTAACCATTCTTTCTGAGAAA, the binding signal (log2 normalized intensity) was -0.725.

In the case of CCTCAAAGGTTAGGGGGATTCTGGCTAAAC, the binding signal (log2 normalized intensity) was -0.628.

On to CTCTTTTGGATTTTTCCATATCTGTGTGCC, for which the binding signal (log2 normalized intensity) worked out at 1.58.

For TATCATTAGATTCCATGCAGCAGCATCCAG, the binding signal (log2 normalized intensity) was -0.708.

For GATAATATTTTTACCAGGTCAGAGGACTTC, the binding signal (log2 normalized intensity) was determined as 2.03.

As to CAAAGCAGGAGATGTGTGAAGGACACAGAA, the binding signal (log2 normalized intensity) was -0.255.

Turning to TGGCACTTTGGACTTGAGAAGACATAGTTT, the binding signal (log2 normalized intensity) is 2.25.

In the case of TGCTTTCAGGTGTGAACCCAGGCAAAGTCC, the binding signal (log2 normalized intensity) turned out to be 3.34.

AAGGGGTCAGACCAGACAGCACCTCTCTGA: the binding signal (log2 normalized intensity) was -1.2.

Turning to CTTACAGTCTTGGATCGGGATGATCAATGT, the binding signal (log2 normalized intensity) came to 1.74.

With TATCAGAAGAATCTGTATCAGCCTGTGACA, the binding signal (log2 normalized intensity) was 1.15.

Take AAAGAAGAAGATGATATGGTCAGTGTTGAT: the binding signal (log2 normalized intensity) was 1.52.
